Measured values: PubChem BioAssay AID1745845 (National Center for Advancing Translational Sciences (NCATS), 2022)
Hit rate of the full screen: of about 360,000 compounds, about 2,600 (0.72%) were called active. The inconclusive results got no clear call from the source; some entries with a clear call stand among them for comparison. Calls come from the whole dose curve; as a rule, active = well fitted inhibition curve with a large enough effect; inconclusive = small, poorly fitted or top-dose-only effect; inactive = no such curve, though single readings can be large or run the other way. A potency beside an inconclusive call is a rough fit, not a confirmed value.

assay: Primary qHTS for Inhibitors of ATXN expression; conditions: HEK-293 ATXN2-luciferase reporter, luminescence, 24 h; activity change, negative = inhibition: at 57 µM (top of the series); note: nearly all actives have a fitted effect of over 55% in size
How it was run: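 qHTS (up to 57 uM final) was run with 24 h compound exposure of reporter cells at 37 °C. Each well was multiplexed: SteadyGlo luminescence measured ATXN2-luciferase expression after a fluorogenic Gly-Phe-AFC viability readout (25 uM final).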
% is set by controls: 0 for no effect and ±100 for the full control effect; potency is the fitted concentration of half-maximal effect; tags give direction and shape of the fitted curve.

Potency, inactive:
CCC(O)CC(C(=O)NNc1ccccc1)C(=O)NNc1ccccc1 (centres undefined)
CCS(=O)(=O)c1cc([N+](=O)[O-])c(Sc2ccccc2NC(C)=O)s1
N#C/C(=C/c1ccc([N+](=O)[O-])cc1)C(=O)Nc1ccccc1O
Nc1nc2ccccc2n1/N=C/c1ccc2c(c1)OCO2
COc1cc(CNCc2ccc(OC)c(OC)c2OC)cc(OC)c1
COc1ccc(OC)c(NC(=O)Nc2nnc([C@H]3C[C@H](O)[C@@H](CO)O3)s2)c1
CS(=O)(=O)c1ccc(NCCN2CCOCC2)c([N+](=O)[O-])c1
Cc1ccc(S(=O)c2ccc(NC(=O)C3CC3)cc2C#N)cc1 (centres undefined)
COc1ccc(CCNC(=O)c2ccc(Cl)cc2)cc1OC
O=c1cc(-c2ccccc2)oc2c1CCCC2
COc1ccc(CCNC(=O)CSc2nc(-c3ccc(F)cc3)cc(C(F)(F)F)n2)cc1OC
CC(=O)C1=NN(c2ccccc2)C(c2ccc3c(c2)OCO3)N1c1ccc(N2CCOCC2)cc1 (centres undefined)
Cc1cc2nc(-c3ccc(Cl)cc3)c(CC(C)(C)C)n2c(C)c1Br
CO/N=C/c1ccc(N2CCN(C(=O)c3ccc(F)cc3)CC2)c([N+](=O)[O-])c1
CC(Sc1nc2ccccc2s1)C(=O)N(C)Cc1ccccc1 (centres undefined)
CCOC(=O)N1CCN(C(=O)CSc2nc3c(cnn3-c3ccccc3)c(=O)[nH]2)CC1
CCc1ccc(NC(=O)Nc2nnc(N(C)C3CCCCC3)s2)cc1
Cc1nn(Cc2ccc(Cl)cc2Cl)c(C)c1NC(=O)NC12CC3CC(CC(C3)C1)C2
COc1ccccc1NC(=O)/C(=C/c1cccc([N+](=O)[O-])c1)c1ccccc1
COc1ccc(CNC(=O)Cn2c(=O)cc(C)c3c(C)nn(-c4cccc(Cl)c4C)c32)cc1
O=C(Nc1c(-c2ccc3c(c2)OCO3)[nH][nH]c1=O)c1ccc2c(c1)OCO2
CCCN(CCC)C(=O)CSc1nc2n[nH]c(C)c2c(=N)n1-c1ccc(OC)cc1

Potency, active:
Cc1ccc(C(=O)N/N=C/c2cc(Br)ccc2O)cn1 2 µM

Potency, inconclusive:
COc1ccccc1NS(=O)(=O)c1cccc(C(=O)N/N=C/c2c(CO)cnc(C)c2O)c1 28.2 µM [inhibitor, single point]
Cc1cc(O)c2c(c1O)C(=O)[C@]13C(=C2O)C(=O)[C@@H]2[C@@H](O)[C@H]1[C@@H]1[C@H](O)[C@H]3C(=O)C3=C(O)c4c(O)cc(C)c(O)c4C(=O)[C@]312 3.16 µM [inhibitor, full curve]
COc1ccc(-c2ccc(C#N)c(SCC(=O)Nc3sc4c(c3C#N)CCC4)n2)cc1OC 39.8 µM [inhibitor, single point]
COc1ccc(C(=O)N/N=C/c2ccc3cccc(OCc4ccccc4)c3n2)cc1 39.8 µM [inhibitor, single point]
Cc1c(N=C2N=C(NC(=O)c3ccc(F)cc3)c3ccccc32)c(=O)n(-c2ccccc2)n1C 26.7 µM [inhibitor, partial curve, poor fit]
C1CCCCCC(NCCN2CCNCC2)CCCCC1 21.2 µM [inhibitor, partial curve]
CCN1CCN(S(=O)(=O)c2ccc(Cl)c(C(=O)N(CC)CC(=O)Nc3ccc(OC)cc3)c2)CC1 2.51 µM [inhibitor, partial curve, poor fit]
O=C(/C=C/c1ccccc1)CC(O)(c1ccccc1)C(F)(F)F (centres undefined) 39.8 µM [inhibitor, single point]
O=C1[C@H](Cc2ccccc2)NCC=CC[C@@H](c2ccc(Cl)cc2)N1Cc1ccc(Cl)cc1 39.8 µM [inhibitor, single point]
O=[N+]([O-])/C=C/c1cn(Cc2ccc(Cl)cc2)c2ccccc12 39.8 µM [inhibitor, single point]
Cc1ccccc1C(=O)N1CCN(c2ccc(NC(=O)c3cccs3)cc2)CC1 15.8 µM [inhibitor, partial curve, poor fit]
Cc1ccc(NC2Sc3ccccc3NC2=O)cc1 (centres undefined) 28.2 µM [inhibitor, single point]
Fc1cccc(-n2cc(-c3ccccc3)c3c(=S)nc[nH]c32)c1 3.55 µM [inhibitor, partial curve, poor fit]
CCCn1c(=N)n(CC(=O)c2ccc(Cl)cc2)c2ccccc21 39.8 µM [inhibitor, single point]
O=C1c2ccccc2S(=O)(=O)c2cc(C(=O)N3CCN(c4ccc(Cl)cn4)CC3)ccc21 20 µM [inhibitor, single point]
N#Cc1ccccc1NC(=O)C1SC(=Nc2ccccc2)C(C(=O)Nc2ccc(Cl)cc2)=C1N (centres undefined) 16.8 µM [inhibitor, partial curve, poor fit]
COc1cccc(NC(=O)C2(C)CCN2C(=O)Cc2ccc(-c3ccccc3)cc2)c1 (centres undefined) 28.2 µM [inhibitor, partial curve, poor fit]
CC(=O)C1=NN(c2ccccc2)C(c2cccs2)N1c1ccc(N(C)C)cc1 (centres undefined) 17.8 µM [inhibitor, partial curve, poor fit]
CN1CCN(S(=O)(=O)c2ccc(NC(=S)NC(=O)C(C)(C)C)cc2)CC1 22.4 µM [inhibitor, partial curve, poor fit]
CCc1nc2ccc(C(=O)N(C)Cc3ccco3)cn2c1N(C)Cc1ccc(OC)cc1 11.2 µM [inhibitor, partial curve, poor fit]
Cc1nc(SCc2nc3ccc(C(F)(F)F)cc3[nH]2)c2oc3ccccc3c2n1 22.4 µM [inhibitor, single point]
COc1ccc(C(=O)N2CC3(CC(c4cccc(NC(=O)COc5ccc(Cl)cc5)c4)=NO3)C[C@@H]2C(N)=O)cc1 (some centres undefined) 35.5 µM [inhibitor, single point]
COC(=O)c1c(NC(=S)NN2CCN(C)CC2)sc2c1CCC(C)C2 (centres undefined) 29.9 µM [inhibitor, partial curve, poor fit]
O=C1[C@H](Cc2ccc(O)cc2)N2C(=O)CCN(C(=O)NCc3ccccc3)[C@H]2CN1Cc1cccc2ccccc12 13.7 µM [inhibitor, partial curve]
COc1cnc(-c2cccc(C(F)(F)F)c2)c(NC(=O)c2cc3ccccc3s2)n1 22.4 µM [inhibitor, partial curve, poor fit]
O=C(Nc1cccc2ccccc12)OC1C=CS(=O)(=O)C1 (centres undefined) 12.6 µM [inhibitor, partial curve, poor fit]
C=CC(=O)N1c2ccccc2Sc2ccc(NC(=O)OCC)cc21 39.8 µM [inhibitor, partial curve, poor fit]
COc1cc(C(=O)N(C)CC2CCN(CCc3cccc(C(F)(F)F)c3)CC2)ccc1C 10 µM [inhibitor, partial curve]
Clc1ccc(-c2noc(CSc3nnc(Cc4cccs4)n3-c3ccccc3)n2)cc1 35.5 µM [inhibitor, single point]
COc1ccc(CN2C(=O)C(CC(=O)NC(c3ccccc3)c3ccccc3)CC(C(=O)N(C(C)C)C(C)C)=C2C)cc1 (centres undefined) 31.6 µM [inhibitor, single point]
COc1ccc(C(=O)NCCn2cc(SC(C)c3ccccc3)c3ccccc32)cc1OC (centres undefined) 22.4 µM [inhibitor, partial curve, poor fit]
COc1ccc(N(C(=O)COc2ccc(C)cc2)S(=O)(=O)c2ccc(C)cc2)cc1 39.8 µM [inhibitor, partial curve, poor fit]
Cn1cccc1-c1cc(C(=O)N/N=C/c2ccc([N+](=O)[O-])cc2)[nH]n1 7.08 µM [inhibitor, full curve]
COc1ccc(-c2coc3c(C(=O)Nc4cccc(NS(C)(=O)=O)c4)cccc23)c(C)c1 39.8 µM [inhibitor, single point]
O=C(CCCCC(=O)NN=Cc1ccc(Cl)cc1)NN=Cc1ccc(Cl)cc1 35.5 µM [inhibitor, single point]
Cc1sc2nc(SCC(=O)c3cccs3)n(Cc3ccco3)c(=O)c2c1C 25.1 µM [inhibitor, partial curve, poor fit]
CCN(CC)C(=O)C1=C(C)N(Cc2ccc(C(C)(C)C)cc2)C(=O)C(CC(=O)NCc2ccco2)C1 (centres undefined) 28.2 µM [inhibitor, partial curve, poor fit]
COc1ccc(NC(=O)Cn2ncc(Cl)c(Cl)c2=O)cc1S(=O)(=O)N1CCOCC1 39.8 µM [inhibitor, single point]
CN(Cc1c(C(=O)N(C)Cc2ccccc2)nc2ccccn12)CC1Cc2ccccc2O1 (centres undefined) 23.8 µM [inhibitor, partial curve, poor fit]
CCCN(CCC)S(=O)(=O)c1ccc(C(=O)Nc2cccc(-c3nc4ccccc4[nH]3)c2)cc1 12.6 µM [inhibitor, partial curve, poor fit]

Activity change, negative = inhibition, inconclusive:
COc1cccc(C(=O)/C=C2\Sc3ccccc3N2C)c1 -65% [inhibitor]
